This is one part of the list.
test system: PfSIP2 AP2 domain 1 (GST-tagged); assay: gcPBM binding intensity (ln(normalized median fluorescence intensity)); higher = stronger DNA binding
Outline: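 Binding intensity values are the highest Masliner-normalised natural-log median intensity among replicate spots of either probe orientation. The binding step lasted 1 h in 1× PBS with 1% milk, 0.2 mg/ml BSA, 0.5% salmon testes DNA and 0.03% Triton X-100, using GST-tagged P. falciparum DNA-binding domains expressed in E. coli on an Agilent 4 × 180k array of primer-extended double-stranded 36-bp intergenic genomic probes plus negative controls. Alexa488 anti-GST antibody and a 488 nm scan detected bound protein.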

Sequence | gcPBM binding intensity (ln)
ATAAATAATTGTAGTTGTACATGATATTTTTATTAC [XGTACX_site550] | 7.14
AAATGGACCTAATTATCACACATTATACTCGTTTTC [CACACA_site5996] | 6.82
ATATATCATAATAAAAGTACTTATATATTTTATATA [XGTACX_site560] | 6.91
AAAATAAATAAATATACACACCATATATATATTTTT [CACACA_site5573] | 6.88
ATATTTATAACTTGTACACACAAATATGCATATATA [CACACA_site7583] | 7.29
TTATTATTCCCTCATTTTGTTACCATTATTTCAATT [CACACA_negctrl_site1023] | 7.09
TTAAAATTTTTTTTTTTTTTTTTTTTTTTTTTTTTC [CACACA_negctrl_site957] | 6.85
TTGTTAAAATTATTAAGTTAAATATCGATTTGTAAA [XGTACX_negctrl_site429] | 6.69
TATAAGTTTATATATACACACATATATATATATATA [CACACA_site3274] | 9.66
TTATTTTCTTTCTATGCACACGCACGTATTTGCCCA [CACACA_site9104] | 7.91
TATAGTAAAATTAGGGTGCTTTTGTAACAAAAAAAA | 8.74
TGCTTCATAAATAAAACATGCAATATAGAAATTAAA [TGCATGCA_site690] | 6.88
AGAGTAGGAAATGGAAAAATAAAATAAATAAATAAA [XGTACX_negctrl_site69] | 6.84
AAATATATATACCACACACACATACCTCTATTTGTA [CACACA_site1854] | 7.05
CGTATTTTAATATTTACACACTTATTTTTTATATAA [CACACA_site125] | 7.1
TTTTGTAAAAGGTATATATATATATATATATATATA [GTGCAC_negctrl_site734] | 9.66
TTTATATAGAAAAATTGTACGAATTACTTTTTTATA [XGTACX_site6843] | 6.66
TATAGCATATTTCACACACACATAATGAATATTATA [CACACA_site3545] | 6.95
TTTAACGTTGAATATACACACATATATTTATTTATA [CACACA_site7695] | 6.91

Sequence | gcPBM binding intensity (ln)
AAAATGTACTTTTTCTAAAGAGTAATGATGCTTGAT [CACACA_negctrl_site1124] | 6.97
AATCCTTTAAAACACACACACAAAAAAAAAAAAAAA [CACACA_site642] | 7.15
ATGAAATATGCACAGTGTACTTTTATGAGGAACATA [XGTACX_site426] | 7.44
TTTTTAATACAAAAAAAATAATATGTTATATTTCAA [CACACA_negctrl_site35] | 6.72
AATTAACCGTGACACACACACATATAAATATAAATA [CACACA_site7790] | 7.38
TGCCCTTTGGTTATAACACACATGCACACGTAAATA [CACACA_site7750] | 7.71
GGGAATATATAAGATACACACACAAATTAAATATAA [CACACA_site8898] | 7.06
TATATATATATATATACACACACACCCACCAAAGCG [CACACA_site7904] | 9.32
AATAAAATAATAGGCACACATATATATATATATTAT [CACACA_site273] | 7.38
ATATATCTACATATATGTACATATATGTATATGTAT [XGTACX_site5432] | 7.21
ATATCCTACTTCTAGTGTACATATATGGACTGATGA [XGTACX_site3683] | 7.19
TACAATTTATGACACACACACAATAATACCTATATA [CACACA_site6704] | 7.16
TATATATATATATGTGCACACATAAAGATATTATTT [CACACA_site3734] | 9.38
AAAAAAAAAAAACACACACACACACTAGTACATACA [CACACA_site4551] | 7.33
TATATATATATATATGTGCGCATATATTTTTTTGTA [GTGCAC_site9983] | 9.52
ACAAAATTTACAAAATGTACAAAATATACAAAATAT [XGTACX_site6465] | 6.99
ACTAGACAAAATATAATGCACACTATTATTTTTATT [CACACA_site2726] | 7.4
AATAATATACATATATATATTATATTGTAATTTTGT [TGCATGCA_negctrl_site1] | 7.11
TTATATCAAGGGAATGCATGCATATCGTTTTGTATT [TGCATGCA_site327] | 6.89

Sequence | gcPBM binding intensity (ln)
CATGAGGTATAAAAGGTGCAAATTAATGAGAACATT | 11.1
TATTCTTATATATATACACACACAAAATATCTACAA [CACACA_site8144] | 7.16
TTGCATTGATCAAACATACACACATGGTTAATAAAA [CACACA_site2084] | 7.12
TATTTCTCACTGTATGGTACAGATATAAATTTTTAT [XGTACX_site8776] | 7.02
CACAAATAAATATTCACACATATATGTCTTATATAT [CACACA_site5323] | 6.91
ATTACAATAAATTCGTGTACATGATACCGCCGCTAC [XGTACX_site8997] | 6.89
ATCAAATTTTTGTTATGTACACAATCATTTAATAAA [XGTACX_site810] | 7.22
TAATTATTATTAAATACACACACATACCTCCATGTT [CACACA_site9134] | 6.89
AAAAAAAAAAAATAGGTGCGTGTTACTTTTGTATGC [GTGCAC_site9524] | 9.97
ATATATATGTATAATCGTACAGTTAACGTATTCTTA [XGTACX_site5649] | 7.09
AAACAGATAAATAAAAGTACACATTAAAAGGTAGCA [XGTACX_site4150] | 6.87
GGATTTTAATGAACACGTACATAAAATTAAATAAAT [XGTACX_site7023] | 6.97
TAATTAATTTCTTTACGTACATAATTAATATATATA [XGTACX_site7372] | 7.24
GGGAGGATAGTTCACAGTACCCAGGAAATCTACGGA [XGTACX_site2553] | 6.89
GGTTCATAATATGGTTGTACATAAATATATATATAT [XGTACX_site7583] | 9.07
TAACAAGGTTTATATGCATGCAAACATAACCAAAAA [TGCATGCA_site824] | 6.92
AATGGGTAAACATACACACACACATCTATATTTATA [CACACA_site7025] | 6.77
TACTATATCATTTATTGTACAATATTTCTTCAGAAA [XGTACX_site1008] | 7.12
CTTTGCCTTAAAAAGGAACACACATGCTTTTTTTAG [CACACA_site8219] | 6.92
